Laboratory results as given in PubChem BioAssay AID651965 (National Center for Advancing Translational Sciences (NCATS), 2013).
Out of some 340,000 compounds screened, about 6,400 (1.9%) were called active. Another 4% or so got no clear call; they are omitted. Calls come from the whole dose curve; as a rule, active = well fitted falling curve with a large enough effect; inconclusive = small, poorly fitted or top-dose-only effect; inactive = no such curve, though single readings can be large or run the other way. Some structures have more than one record in an assay (separate samples or runs), and their calls can disagree. For part of its entries the source gives two or more results. They are shown here; other results are not. There may be further records. Results that share an entry are repeated measurements in other runs, samples, wells, individuals or studies. Marks in square brackets tell the records apart. The letters are not those of the source and start again with each entry.

target: ATP-dependent Clp protease proteolytic subunit (Bacillus subtilis (strain 168)) (UniProt P80244); experiment: qHTS Assay for Activators of ClpP; note: the source files actives as falling curves though it sought activators and does not explain the sign; nearly all actives have a fitted effect of over 65% in size; conditions: purified B. subtilis ClpP, FRET peptide cleavage, 20 min; series mostly up to 57.5 µM
Chain of UniProt P80244 (P80244 whole entry, looked up): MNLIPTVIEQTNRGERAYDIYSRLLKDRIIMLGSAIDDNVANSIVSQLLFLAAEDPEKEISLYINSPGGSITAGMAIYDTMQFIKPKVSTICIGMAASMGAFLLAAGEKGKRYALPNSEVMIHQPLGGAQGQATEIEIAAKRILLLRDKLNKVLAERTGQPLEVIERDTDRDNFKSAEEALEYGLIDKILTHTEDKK
Description: The Clp protease proteolytic subunit (ClpP) is the core unit of the Clp complex belonging to the peptidase family S14 that hydrolyzes protein into small peptides in the presence of ATP and magnesium. It is ubiquitously expressed and is the major protease in bacteria. […] Unlike common antibiotics that simply interfere with the essential enzyme activity, ADEP binding activates the ClpP core in the absence of the regulatory Clp-ATPases leading to uncontrolled proteolysis and eventually cell death. […]
To identify activators of ClpP, a FRET based quenching reversal assay was developed using a purified B. subtilis ClpP and a decapeptide substrate (FRET-FV). […] FRET-FV cleaves upon activation of ClpP with ADEP treatement and reverses the quenching effect of the nitrotyrosine causing an increase in fluorescence emission signal at 430nm. […]
Two and a half microL/well of purified enzyme solution (final concentrations 10 microg/mL B. subtilis ClpP in 100 mM Tris/HCl pH8, 100 mM KCl, 0.05% low protease BSA, 2.5% glycerol, 0.01% Tween-20 buffer) was dispensed into 1536-well assay plates (Greiner, black solid, medium-binding plates) with Aurora Discovery BioRAPTR Flying Reagent Dispenser (FRD, Beckton-Dickenson). […] FRET signals at time 0 and after 20 min room temperature incubation were obtained using the PerkinElmer Envision plate reader with 320nm excitation and 430nm emission filters. […]

SMILES | Potency
Cc1ccc(-n2ncc3c(Nc4cccc(C(=O)O)c4)ncnc32)cc1 | active: 3.55 µM [sample A] and inactive [sample B]
